Assay results from the RNAGym collection of RNA variant scans (doi:10.7554/elife.90254).
The source gives no read counts; variants with many changes may rest on few reads.

B1: LINE1-mini (parent)
chain: GGCAGAGCUCAACACAGCGUGGCAAAGUGGCUGUGGCUAGACUGCC

Variants of: B1
Assay: self-cleavage, relative activity (ratio to wild type); higher = more cleavage; in vitro, sequencing; the parent is a self-cleaving ribozyme

Variant	self-cleavage
C15U C23G U32A	0.16
A26U U34G U43A C46U	0.02
G5A G7U G27A	0.19
G17A U20G C45U	0.94
A6G G7A C37A	0.02
C3A A12C C13A G21U G30C A39C	0.04
G21C G27U A39G C45G	0.1
A4C A24G G29A A41C	0.11
C10A A11C C13G	0
A4U C13U C42U	0.05
C13U C15A C37A	0.09
G2C A11C G19A G33U C42G	0
A12C A26G U43A	0.01
C10A C23A G35C A41U	0.01
C10G A11G G44C C46U	0.01
U32C G33A A39C	0.02
G22U C31G C45G	0.03
G2U C8A A26G U32A	0.01
C3G C8A G27U G36A	0.13
A12U C13G U34G G44A	0.01
C8A C15A G29C	0.93

Variant	self-cleavage
G2U U9A G21C U28G	0.01
A4U A14C C31G	0
G5U C8A G27U	0.68
G2U U28C C31A	0.02
G2C A25G G33A C37A G40U	0.04
A6C A14G A16G	0.05
U9G A14U G33A	0.16
U9C G29U A41U	0.04
C18U C23U G40U C46U	0.04
A24C G27C G40U	0.01
G1U U20C A25C A39G	0.05
G19C G44C C46U	0.1
A6U C15G G19A	0.26
U9C A12U U20C A41U	0.01
G1C G2A G22A	0.13
A6C G36A C46U	0.24
A14G C15G A25G	0
U20C G21U G30A U34A	0.19
A12U A14C G27U C31A U43A	0.03
A12C G19C C42U	0
U9G C15G C37U	0.09

Variant	self-cleavage
C10A C15U C23A G35A	0.01
G1C C3U A4U A14C U28C G30A	0.02
G17A G29A U34G G36U	0.02
G1C A11U A16G	0
G27C U32G U34A	0.09
C3U G5U U28A	0.09
A6G C8A A26C U38A	0.05
U9G C10A G40U U43C C45A C46A	0.02
C10U G40U A41C	0.06
A4U G22C G33C	0.04
G5U G17A C18A A39G G44U	0.04
G2U G5A G21U	0.05
A12U G17A U38G	0.02
C13U C15A C18A G21U G27A G36U U38C C42U	0.02
G22A U28C U34G	0.09
C8G C10A A16U G22A C23A U28C G35C	0.01
A4C C10A A12C G44U	0
G1A A26U G30C	0.26
G1A C10U G40U	0.06
A4G A16U G17C A25C G27C	0
A16C U28C G35U A39C	0

Variant	self-cleavage
A14G G29U G36U	0.09
G29C G30A U34A	0.02
G19A U20A C23A A41G	0.11
U20C C23G U34C G40A	0.04
A26C G29C C37U	0.01
A4G C18U C31U U43G C46U	0.02
U9C C15G G40A	0.03
G22C G29C U38G	0.03
A11U U28A G30C G40U	0.02
G27U G36C A39C	0.02
G19A G27U U32G G36U	0.06
G19A A26G G36U	0.02
C13A U28C A41U	0.2
A4C G21C G22U A41C	0.26
G29U U32A A39C	0.06
A6C C10A C31A A39U	0.02
A6C C8A C23A	0.27
C15A G22A A25G U32A	0.04
G5U U9C G27U C31A	0.03
G2U G5C A11U C15A U20C A24G G29C U34A C45A	0
C8A G17A C46U	0.13
